Measurements from a collection of fitness landscapes (doi:10.1016/j.celrep.2020.107928).
In all, about 81,000 sequences were measured (“one-hybrid fitness for binding NBS DNA”: median about -0.1, highest 2% from about 0.36 on). The list shows a part of the results.

B1: Caulobacter ParB omega fusion; a variant is named by its letters at X, in order, B8GW30 (parent)
chain: MESVVVGEPGMSEGRRGLGRGLSALLGEVDAAPAQAPGEQLGGSREAPIEILQRNPDQPRRTFREEDLEDLSNSIREKGVLQPILVRPSPDTAGEYQIVAGERAWRAAQRAGLKTVPIMVRELDDLAVLEIGIIENVQRADLNVLEEALSYKVLMEKFERTQENIAQTIGKSXSHVANXMRLLXLPDEVQSYLVSGELTAXHARAIAAAADPVALAKQIIEGGLSVRETEALARKAPNLSAGKSKGGRPPRVKDTDTQALESDLSSVLGLDVSIDHRGSTGTLTITYATLEQLDDLCNRLTRGI

Variants of: B1
Assay: one-hybrid fitness for binding NBS DNA (the Noc-binding site; scaled: cognate 1, non-cognate 0); higher = stronger binding
Conditions: with NBS DNA site
In short: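 Pre- and post-selection plasmids were Illumina-sequenced, three replicate libraries were pooled, and any variant with under 10 reads was removed. The libraries were Caulobacter ParB with four specificity codons randomised, selected in E. coli USO through a HIS3 reporter whose site is 19 bp from the promoter. Cells grew 48 hours at 37°C on M9 without histidine, with 0.1 mM IPTG and 5 mM 3-AT. Fitness is the log change in variant-to-wild-type read ratio, rescaled against cognate and non-cognate.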

Variant | one-hybrid fitness for binding NBS DNA
HKRK | ≤ 0.2
QFGP | ≤ 0.2
EVSD | ≤ 0.2
AFRK | ≤ 0.2
WLMR | ≤ 0.2
KTKY | ≤ 0.2
YSYS | ≤ 0.2
EHFG | ≤ 0.2
DFVD | ≤ 0.2
EMQE | ≤ 0.2
ARYN | ≤ 0.2
QTNT | 0.71
MMPH | ≤ 0.2
WSCT | ≤ 0.2
LVLP | ≤ 0.2
RINS | 0.445
TMSY | ≤ 0.2
KDQS | ≤ 0.2
MLPN | ≤ 0.2
SILI | ≤ 0.2
YHYL | ≤ 0.2
LSLQ | ≤ 0.2
MRTF | ≤ 0.2
ECAV | ≤ 0.2
AVWG | ≤ 0.2

Variant | one-hybrid fitness for binding NBS DNA
YTLG | ≤ 0.2
VSQA | ≤ 0.2
LYVR | ≤ 0.2
MRRG | ≤ 0.2
MSVC | ≤ 0.2
TRLW | ≤ 0.2
TTSW | ≤ 0.2
YSMV | ≤ 0.2
RRVP | ≤ 0.2
HMCR | ≤ 0.2
FNDN | ≤ 0.2
QNSI | ≤ 0.2
VKKA | ≤ 0.2
MHQE | ≤ 0.2
RQYE | ≤ 0.2
NRSK | ≤ 0.2
RNWM | ≤ 0.2
ETCS | ≤ 0.2
DFAG | ≤ 0.2
FMND | ≤ 0.2
YNQG | ≤ 0.2
WIHT | ≤ 0.2
LKSE | ≤ 0.2
NHEC | ≤ 0.2
SAQF | ≤ 0.2

Variant | one-hybrid fitness for binding NBS DNA
LTDN | ≤ 0.2
AYSG | ≤ 0.2
LVPG | ≤ 0.2
EDFG | ≤ 0.2
RPPT | ≤ 0.2
LTHC | ≤ 0.2
YILM | ≤ 0.2
QCAE | ≤ 0.2
RCEY | ≤ 0.2
RTSV | ≤ 0.2
NLPD | ≤ 0.2
QVCG | ≤ 0.2
DHER | ≤ 0.2
PYHS | ≤ 0.2
DACW | ≤ 0.2
INIL | ≤ 0.2
QHSK | ≤ 0.2
RKRD | ≤ 0.2
YGAN | ≤ 0.2
GFLA | ≤ 0.2
NSKN | ≤ 0.2
CISC | ≤ 0.2
LHRN | ≤ 0.2
SYVP | ≤ 0.2
DRQH | ≤ 0.2

Variant | one-hybrid fitness for binding NBS DNA
SPQY | ≤ 0.2
QRIL | ≤ 0.2
HQRA | ≤ 0.2
RPCR | ≤ 0.2
RESR | ≤ 0.2
CIKS | ≤ 0.2
DYGG | ≤ 0.2
SHCW | ≤ 0.2
NHPR | ≤ 0.2
NVCG | ≤ 0.2
VNVC | ≤ 0.2
PIKG | ≤ 0.2
DRDF | ≤ 0.2
YHCS | ≤ 0.2
AFKF | ≤ 0.2
QSAV | ≤ 0.2
WMYP | ≤ 0.2
NKVI | ≤ 0.2
QVSG | ≤ 0.2
CSCD | ≤ 0.2
SVSF | ≤ 0.2
GRYL | ≤ 0.2
QGVT | ≤ 0.2
